For 28 compounds, T/C results are on record in PubChem BioAssay AID212 (DTP/NCI, 2004).

Inconclusive results are not listed. Certain results were filed several times, with different values. The other results are left out here. The source may hold further records. Values that stand side by side repeat one measurement across runs, samples, wells, individuals or studies.

The test system of the test is BDF1 mice, colon carcinoma 38 sc, T/C %. Nature of the test: NCI In Vivo Anticancer Drug Screen. Data for tumor model Colon Carcinoma 38 (subcutaneous) in B6D2F1 (BDF1) mice. Particulars: endpoint: median tumor weight (est.), schedule: Q07DX002 (ip), higher = larger tumour. Put shortly: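 T/C readout: treated group (T) measurement over vehicle control group (C) measurement. Endpoint is survival or tumor size in mice bearing a transplanted tumor.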

Where [1] appears, read: dose: 50.0 mg/kg/injection, vehicle: saline.
Where [2] appears, read: dose: 100.0 mg/kg/injection, vehicle: saline.
Setting [3] is: dose: 200.0 mg/kg/injection, vehicle: saline.
Setting [4] is: dose: 12.5 mg/kg/injection, vehicle: saline with Tween-80.
The mark [5] stands for this setting: dose: 50.0 mg/kg/injection, vehicle: saline with Tween-80.
Setting [6] is: dose: 100.0 mg/kg/injection, vehicle: saline with Tween-80.
Where [7] appears, read: dose: 100.0 mg/kg/injection, vehicle: water.
Where [8] appears, read: dose: 50.0 mg/kg/injection, vehicle: Klucel (hydroxypropylcellulose) (HPC).
[9] abbreviates: dose: 200.0 mg/kg/injection, vehicle: Klucel (hydroxypropylcellulose) (HPC).
Where [10] appears, read: dose: 100.0 mg/kg/injection, vehicle: Klucel (hydroxypropylcellulose) (HPC).
Setting [11] is: dose: 25.0 mg/kg/injection, vehicle: saline.
Setting [12] is: dose: 400.0 mg/kg/injection, vehicle: saline.
[13] abbreviates: dose: 800.0 mg/kg/injection, vehicle: saline.
[14] abbreviates: dose: 25.0 mg/kg/injection, vehicle: saline with Tween-80.

For the compound `CCC(C)C(=O)O[C@H]1C(=O)O[C@@H]2C[C@H]3C(C)=CC(=O)[C@@H](O)[C@]3(C)[C@H]3[C@@H](O)[C@H](O)[C@@]4(C)OC[C@]32[C@@H]14` (stereo not given in full), under “dose: 2.5 mg/kg/injection, vehicle: saline + alcohol”, the T/C is 38 % of control and 103 % of control.

Turning to `O=NN(CCCl)C(=O)NCCO`, the T/C (dose: 6.25 mg/kg/injection, vehicle: water) was 56 % of control and 93 % of control.

For `OCC12COCN1COC2`, the T/C reads like this: under setting [1], 71 % of control and 109 % of control; under setting [2], 56 % of control and 92 % of control; under setting [3], 47 % of control and 97 % of control.

As to `COc1cc(O)c2c(O)c3c(c4c2c1[C@]1(C4)C(C)=CCCC1(C)C)[C@H](O)[C@@]1(O)CC(=O)C(C(N)=O)=C(O)[C@@]1(O)C3=O`, under setting [4], the T/C was 49 % of control and 105 % of control.

For the compound `OCCOCC(F)(F)F`, the T/C is, setting by setting: under setting [4], 63 % of control and 216 % of control; under setting [5], 72 % of control and 100 % of control; under setting [6], 78 % of control and 105 % of control.

As for `ClC1C(Cl)C(Cl)C(Cl)C(Cl)C1Cl` (stereo not given), the T/C was 47 % of control and 94 % of control (dose: 225.0 mg/kg/injection, vehicle: saline with Tween-80); 75 % of control and 109 % of control (dose: 900.0 mg/kg/injection, vehicle: saline with Tween-80).

Turning to `Cc1nc(N)nc(N)c1-c1ccc(Cl)c(Cl)c1`, the T/C is, setting by setting: (dose: 20.0 mg/kg/injection, vehicle: saline) 14 % of control, 66 % of control, 70 % of control; (dose: 40.0 mg/kg/injection, vehicle: saline) 5 % of control and 75 % of control.

Regarding `COc1cccc2c1C(=O)c1c(O)c3c(c(O)c1C2=O)C[C@@](O)(C(C)=O)C[C@@H]3OC1CC(N(C)C)C(O)C(C)O1` (stereo not given in full), the T/C (dose: 18.0 mg/kg/injection, vehicle: saline) is on record as 23 % of control, 32 % of control, 52 % of control.

Take `Oc1cc2c3c(c1)c1cc4c(cc1c[n+]3CC2)OCO4`: the T/C reads like this: (dose: 12.5 mg/kg/injection, vehicle: water) 108 % of control and 151 % of control; under setting [7], 52 % of control and 85 % of control.

In the case of `Cn1cnc([N+](=O)[O-])c1S(=O)(=O)NCN1CCOCC1`, the T/C reads like this: (dose: 25.0 mg/kg/injection, vehicle: Klucel (hydroxypropylcellulose) (HPC)) 51 % of control and 109 % of control; under setting [8], 62 % of control and 96 % of control; under setting [9], 49 % of control and 78 % of control.

Take `CCCCc1ccc(-n2c(C)c(COC(=O)NC)c(COC(=O)NC)c2C)cc1`: the T/C (dose: 6.25 mg/kg/injection, vehicle: Klucel (hydroxypropylcellulose) (HPC)) is 124 % of control and 161 % of control; the T/C under setting [8] was 75 % of control and 111 % of control; the T/C under setting [10] is 84 % of control and 112 % of control.

Take `COc1cc([C@@H]2c3cc4c(cc3[C@@H](OC3OC5CO[C@@H](c6cccs6)OC5C(O)C3O)[C@H]3COC(=O)[C@H]23)OCO4)cc(OC)c1O` (stereo not given in full): the T/C reads like this: (dose: 8.0 mg/kg/injection, vehicle: suspension in saline) 70 % of control and 111 % of control; (dose: 16.0 mg/kg/injection, vehicle: suspension in saline) 77 % of control and 115 % of control.

Take `CN(C)N=Nc1cn[nH]c1C(N)=O`: the T/C (dose: 12.5 mg/kg/injection, vehicle: Klucel (hydroxypropylcellulose) (HPC)) is 72 % of control and 108 % of control.

`CNC(=O)OCc1c(COC(=O)NC)c(-c2ccccc2)n(C)c1-c1ccccc1`: the T/C was 59 % of control and 195 % of control (dose: 6.25 mg/kg/injection, vehicle: distilled water + Tween-80); 87 % of control, 93 % of control, 118 % of control (dose: 12.5 mg/kg/injection, vehicle: distilled water + Tween-80); 45 % of control, 64 % of control, 87 % of control (dose: 25.0 mg/kg/injection, vehicle: distilled water + Tween-80); 40 % of control, 104 % of control, 122 % of control (dose: 50.0 mg/kg/injection, vehicle: distilled water + Tween-80).

On to `OCC1(CO)COC2(CCCCC2)N1`, for which the T/C (dose: 12.5 mg/kg/injection, vehicle: saline) is 65 % of control and 112 % of control; the T/C under setting [11] was 122 % of control and 164 % of control; the T/C under setting [1] is 71 % of control and 105 % of control.

With `C[N+](C)(C)c1ncnc2c1ncn2C1CCCO1` (stereo not given), under setting [2], the T/C is 35 % of control and 104 % of control.

As to `N=C1CCCS1`, the T/C under setting [1] was 29 % of control and 103 % of control; the T/C under setting [2] was 46 % of control and 101 % of control.

On to `CC(=O)NC(C=O)OCC=O` (stereo not given), for which the T/C was 84 % of control and 176 % of control (dose: 25.0 mg/kg/injection, vehicle: water); 78 % of control and 105 % of control (dose: 50.0 mg/kg/injection, vehicle: water); 72 % of control and 111 % of control under setting [7]; 68 % of control and 99 % of control (dose: 200.0 mg/kg/injection, vehicle: water).

With `O=C1NC(=O)/C(=C/C=C/c2ccccc2)S1`, the T/C under setting [5] was 78 % of control and 106 % of control; the T/C (dose: 200.0 mg/kg/injection, vehicle: saline with Tween-80) was 102 % of control and 195 % of control; the T/C (dose: 400.0 mg/kg/injection, vehicle: saline with Tween-80) was 59 % of control and 192 % of control.

For the compound `CC(=O)Oc1c(C)[nH]ccc1=O`, the T/C runs as follows: under setting [11], 55 % of control and 116 % of control; under setting [1], 56 % of control, 69 % of control, 88 % of control; under setting [2], 78 % of control and 164 % of control; under setting [12], 85 % of control and 170 % of control; under setting [13], 55 % of control and 169 % of control.

Turning to `COC1=CC(=O)C(OC)=C(OC)C1=O`, under setting [14], the T/C is 72 % of control and 187 % of control.

Consider `CCCC(=O)Nc1ncnc2c1ncn2C1OC2COP(=O)(O)OC2C1OC(=O)CCC` (stereo not given), for which the T/C was 63 % of control, 90 % of control, 96 % of control under setting [1]; 67 % of control, 157 % of control, 179 % of control under setting [3]; 64 % of control and 120 % of control under setting [12].

Regarding `CSc1nc(=O)[nH]nc1SCc1ccccc1`, the T/C was 124 % of control and 162 % of control under setting [10]; 85 % of control and 167 % of control under setting [9]; 65 % of control and 176 % of control (dose: 800.0 mg/kg/injection, vehicle: Klucel (hydroxypropylcellulose) (HPC)).

In the case of `OCCCN1CCCCC1CO` (stereo not given), the T/C under setting [13] was 86 % of control and 199 % of control.

Regarding `CC(C)CC(NC(=O)CF)C(=O)O` (stereo not given), where the note is “dose: 2.5 mg/kg/injection, vehicle: saline”, the T/C was 75 % of control and 108 % of control.

Consider `COc1cc(OC)c(OC)cc1/C=C\c1ccnc2ccccc12`, for which the T/C under setting [9] was 70 % of control and 115 % of control.

`COC1(OC)C2C=CC1CC2`: the T/C is 94 % of control and 123 % of control under setting [14]; 71 % of control and 99 % of control under setting [6].

On to `COC(=O)C12OCC34C(CC5C(C)=CC(=O)C(O)C5(C)C3C(O)C1O)OC(=O)C(OC(=O)CC(C)C)C24` (stereo not given), for which the T/C (dose: 0.25 mg/kg/injection, vehicle: saline + alcohol) was 91 % of control and 178 % of control.
